This is an account of results in PMC7915732 (2021).

Bridge positions count the residues as written; N and C are the ends. Ends that are not written are not given here.

What is called Kd is a measure of binding affinity in units of concentration. The low end stands for higher affinity, the high end for lower affinity.

Experiment [1] deals with T1, cyclo[E-VQCRGKGEQ-K] (synthetic construct, lactam 1-11).
T1 chain: EVQCRGKGEQK
The experiment is described as follows: yeast surface titration.

For experiment [2], the target named is T2, cyclo[E-LYLAYPAH-K] (synthetic construct, lactam 1-10).
T2 chain: ELYLAYPAHK
In words: yeast surface titration.

Experiment [3] has as its target T3, QVQCRGKGEQK linear peptide (synthetic construct).
T3 chain: QVQCRGKGEQK
In words: yeast surface titration.

Experiment [4] addresses T4, QLYLAYPAHK linear peptide (synthetic construct).
T4 chain: QLYLAYPAHK
The experiment is described as follows: yeast surface titration.

Experiment [5] deals with T5, PTCH peptide (Homo sapiens, not fully specified).
T5 chain: RYSPPPPYSSHS
The experiment is described as follows: resin adsorption isotherm.

For experiment [6], the target named is T6, cyclo[E-LYLAYPAH-K] (synthetic construct, lactam 1-10).
T6 chain: ELYLAYPAHK
In words: resin adsorption isotherm.

B1: N-terminal YAP […] (protein)
chain: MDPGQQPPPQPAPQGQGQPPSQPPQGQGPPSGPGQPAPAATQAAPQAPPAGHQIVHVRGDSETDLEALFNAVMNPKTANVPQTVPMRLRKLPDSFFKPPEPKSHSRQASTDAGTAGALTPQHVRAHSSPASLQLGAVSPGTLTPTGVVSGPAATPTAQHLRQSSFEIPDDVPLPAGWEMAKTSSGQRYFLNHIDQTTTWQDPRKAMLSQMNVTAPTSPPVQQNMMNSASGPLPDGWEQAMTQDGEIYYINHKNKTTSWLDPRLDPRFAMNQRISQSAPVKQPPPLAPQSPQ
Consider B1, for which the dissociation constant (Kd) in experiment [1] worked out at 460 nM; in experiment [2], 1750 nM; in experiment [3], 360 nM; in experiment [4] it was 740 nM; in experiment [5] it was 200 nM; in experiment [6] it was 340 nM.
